# Results taken from the DeepSol protein solubility set.
# Experiment: soluble on expression in E. coli; label from the status in PepcDB or PDB records
sequence,measurement,value
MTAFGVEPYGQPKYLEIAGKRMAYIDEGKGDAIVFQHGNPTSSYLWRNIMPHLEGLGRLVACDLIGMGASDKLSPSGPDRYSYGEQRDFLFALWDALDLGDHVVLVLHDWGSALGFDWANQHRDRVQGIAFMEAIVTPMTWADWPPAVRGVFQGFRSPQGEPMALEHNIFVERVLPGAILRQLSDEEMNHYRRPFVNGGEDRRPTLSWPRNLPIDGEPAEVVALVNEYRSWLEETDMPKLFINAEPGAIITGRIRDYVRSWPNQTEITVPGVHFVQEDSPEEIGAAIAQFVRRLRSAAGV,soluble on expression in E. coli,soluble
